The text below walks through data of patent US20100173832A1, “ANTICANCEROUS POLYMERIC AGENTS” (TECHNION RESEARCH & DEVELOPMENT FOUNDATION LTD., priority 2007, published 2010).

One may read the CC50 as the concentration giving 50% cytotoxicity.

SMILES strings stand for the structures. Non-standard residues stand in square brackets, D forms with d. Residues, ends and D or L forms follow the SMILES beside them. 12Ado = NCCCCCCCCCCCC(=O)O

This data set relates to AA8, EMTR1, A549, K1.5, 2008, MRP1, MRP2, MRP3, HEK, MRP4 and MRP5 cell-lines. As to conditions: human (AA8 and EMTR1: CHO, Chinese hamster).

The compound `NCCCCCCCCCCCC(=O)N[C@@H](CCCCN)C(=O)N[C@@H](CCCCN)C(=O)NCCCCCCCCCCCC(=O)N[C@@H](CCCCN)C(=O)N[C@@H](CCCCN)C(=O)NCCCCCCCCCCCC(=O)N[C@@H](CCCCN)C(=O)N[C@@H](CCCCN)C(=O)NCCCCCCCCCCCC(=O)N[C@@H](CCCCN)C(N)=O` (H-[12Ado]KK[12Ado]KK[12Ado]KK[12Ado]K-NH2) returned a CC50 of 15 to 18 µM.
